From the supplement of paper PMC12217912
The list shows a part of the results. The full chains were built here from the parent and the listed change. Values near 0.05 are background.

B1: TEV protease; numbered along this chain (parent)
chain: MGESLFKGPRDYNPISSSICHLTNESDGHTTSLYGIGFGPFIITNKHLFRRNNGTLVVQSLHGVFKVKDTTTLQQHLVDGRDMIIIRMPKDFPPFPQKLKFREPQREERICLVTTNFQTKSMSSMVSDTSCTFPSGDGIFWKHWIQTKDGQCGSPLVSTRDGFIVGIHSASNFTNTNNYFTSVPKNFMELLTNQEAQQWVSGWRLNADSVLWGGHKVFMVKPEEPFQPVKEATQL

Variants of: B1
Assay: raw area under fraction-flipped curve 0-4 h after induction (AUC4h, not background-subtracted), DNA-recorder readout of cleavage of the substrate (dimensionless); higher = more cleavage of the substrate by the protease variant
Conditions: temperature: 34 °C; time window: 0-4 h after rhamnose induction
Procedure: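 In vivo DNA recorder in E. coli TOP10(DE3) ΔrhaA at 34 °C. Each TEVp single-site mutant (parent TEVp 0) is paired with a single-site variant of the 7-mer TEVs (canonical ENLYFQ|S). The substrate sits between flexible linkers in a Bxb1-sfGFP-TEVs-SsrA fusion, so cleavage stabilises Bxb1 and speeds flipping of a recombination array, read by NGS. The value is the raw area under the fraction-flipped curve over 0-4 h after rhamnose induction (AUC4h), with ≥20 reads per time point. It is not background-subtracted; inactive controls average about 0.047.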
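Also: Bxb1 expression induced with 0.2% (w/v) L-rhamnose at OD600 near 0.5, cultures sampled hourly, flipped fraction per protease–substrate barcode pair counted by paired-end Illumina sequencing.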

Variant | area with substrate ECLYFQS | area with substrate EDLYFQS | area with substrate EELYFQS | area with substrate EGLYFQS | area with substrate EHLYFQS | area with substrate EKLYFQS | area with substrate ELLYFQS | area with substrate EMLYFQS | area with substrate EQLYFQS | area with substrate ERLYFQS | area with substrate ESLYFQS | area with substrate ETLYFQS | area with substrate EVLYFQS | area with substrate EWLYFQS | area with substrate EFLYFQS | area with substrate EILYFQS | area with substrate EYLYFQS | area with substrate EPLYFQS
I110S | 0.0576 | 0.0577 | 0.0685 | 0.0182 | 0.0536 | 0.0671 | 0.0587 | 0.0405 | 0.0685 | 0.0597 | 0.0677 | 0.0618 | 0.0545 | 0.0466 |  |  |  | 
N52D | 0.0448 |  | 0.0787 | 0.0967 |  |  | 0.0321 | 0.125 | 0.069 | 0.0675 | 0.089 | 0.0768 | 0.0681 | 0.0591 | 0.0656 | 0.0682 | 0.113 | 
M83K | 0.0533 | 0.0688 |  |  | 0.0557 |  | 0.0569 | 0.0647 |  | 0.0411 | 0.0631 |  | 0.0857 | 0.0269 |  |  |  | 0.0606
M83G | 0.0456 | 0.0671 |  | 0.0543 | 0.0469 | 0.0578 | 0.0524 |  | 0.0509 | 0.0378 | 0.0597 | 0.0546 | 0.054 |  |  | 0.0495 | 0.0555 | 
M83C | 0.072 | 0.0801 |  | 0.0842 |  | 0.068 | 0.0747 |  | 0.0948 | 0.0862 | 0.0916 | 0.103 | 0.0957 | 0.0869 | 0.0773 | 0.101 | 0.0828 | 
Q74C | 0.0799 |  | 0.141 | 0.0561 |  |  |  | 0.139 | 0.11 | 0.108 | 0.109 | 0.121 | 0.106 | 0.0918 | 0.0856 | 0.0729 |  | 0.12
R106T | 0.114 | 0.118 |  | 0.108 |  | 0.0999 | 0.0977 | 0.0875 | 0.148 | 0.108 | 0.101 | 0.0941 | 0.112 |  | 0.0922 | 0.139 |  | 
D91Q | 0.117 |  |  |  |  |  |  |  | 0.117 |  | 0.131 |  | 0.0795 |  |  | 0.0945 |  | 
D91W | 0.0868 |  | 0.123 | 0.0915 | 0.12 | 0.0843 | 0.096 | 0.121 | 0.107 | 0.0823 | 0.111 | 0.0868 | 0.0718 | 0.104 | 0.114 | 0.15 | 0.0857 | 0.114
D91F | 0.092 | 0.0781 | 0.078 | 0.094 | 0.0942 | 0.1 |  | 0.0891 | 0.104 |  | 0.0858 | 0.0889 | 0.0721 | 0.0912 |  | 0.0909 | 0.0931 | 0.111
K98M | 0.115 |  | 0.102 |  |  | 0.114 | 0.0964 |  | 0.106 | 0.162 | 0.0985 | 0.111 | 0.0973 | 0.109 | 0.101 | 0.1 |  | 0.146
K98T | 0.117 | 0.117 | 0.119 | 0.0785 | 0.0784 | 0.135 |  | 0.119 | 0.102 | 0.103 | 0.118 | 0.11 | 0.0796 | 0.0951 | 0.0732 | 0.119 |  | 0.161
K98G | 0.143 |  |  | 0.101 | 0.0871 | 0.104 | 0.0858 |  | 0.116 | 0.0907 | 0.109 |  |  | 0.0896 |  | 0.122 |  | 
D69T | 0.0934 | 0.0823 | 0.105 | 0.076 |  |  | 0.0719 | 0.119 |  |  | 0.0848 |  | 0.104 | 0.0727 |  | 0.0677 |  | 0.133
D69N | 0.094 | 0.104 | 0.0992 |  | 0.045 | 0.125 |  |  | 0.089 | 0.1 | 0.105 | 0.0617 | 0.088 | 0.0868 | 0.124 | 0.0684 | 0.122 | 
G63H | 0.0991 | 0.113 |  | 0.0881 |  | 0.0854 | 0.0947 |  | 0.0878 |  |  |  | 0.0816 |  |  | 0.096 |  | 
E107G | 0.089 | 0.155 | 0.0792 | 0.103 | 0.0929 | 0.0913 | 0.0966 |  | 0.136 | 0.094 | 0.0826 | 0.0937 |  | 0.0863 |  |  |  | 0.0959
T71P | 0.106 |  | 0.107 | 0.0487 |  | 0.0853 | 0.0687 |  |  |  | 0.0714 |  |  |  |  | 0.0803 |  | 
E103V | 0.0829 | 0.108 | 0.102 |  |  | 0.11 | 0.0856 | 0.107 | 0.11 | 0.102 | 0.0966 |  |  | 0.092 |  | 0.088 |  | 0.0841
E103H | 0.0891 | 0.103 | 0.109 | 0.0814 |  | 0.0489 |  | 0.108 | 0.107 |  | 0.0795 | 0.0986 | 0.102 | 0.0909 | 0.0845 |  |  | 0.0782
V67C | 0.106 | 0.108 |  | 0.101 |  | 0.115 | 0.114 | 0.106 | 0.115 | 0.108 |  |  | 0.0904 | 0.071 |  |  |  | 0.0743
F65M | 0.0944 | 0.127 | 0.115 | 0.0885 | 0.0993 | 0.106 |  | 0.0898 |  | 0.09 | 0.095 | 0.0873 | 0.0901 | 0.0834 |  | 0.0864 | 0.112 | 0.105
D79H | 0.118 |  | 0.0813 | 0.0972 |  | 0.105 |  |  | 0.143 |  | 0.124 |  | 0.089 | 0.0914 |  |  |  | 
D79A | 0.0913 |  |  | 0.0832 |  | 0.0839 |  | 0.106 |  | 0.0848 |  | 0.0953 |  |  |  |  | 0.0675 | 
R81M | 0.09 | 0.0671 | 0.105 |  | 0.102 |  |  | 0.0935 | 0.0885 | 0.0924 | 0.0936 | 0.119 | 0.0863 |  |  | 0.0856 | 0.0962 | 0.11
R81F | 0.0989 | 0.0935 | 0.0823 | 0.077 | 0.102 | 0.086 | 0.0829 | 0.0734 | 0.097 | 0.0954 | 0.0953 | 0.1 | 0.0701 | 0.0999 | 0.0835 | 0.105 |  | 0.0846
I86W | 0.0739 |  | 0.0778 |  |  | 0.0751 | 0.0384 |  | 0.0706 | 0.0733 | 0.0679 |  | 0.0647 | 0.0707 |  | 0.0604 | 0.0772 | 0.0762
L56E | 0.0372 | 0.0439 |  | 0.0685 | 0.0429 | 0.0345 | 0.0559 | 0.0626 | 0.0555 |  | 0.0376 |  | 0.0463 | 0.0601 | 0.0258 | 0.041 | 0.0474 | 0.0352
